For 26 compounds, cytotoxicity call and growth inhibition call results are on record in the antibiotic and cytotoxicity screens of Wong et al. (2023).

Molecules are shown by their SMILES. The list shows a part of the results.

Assay [1] deals with HSkMC (human skeletal muscle cells). Nature of the assay: cytotoxicity call (relative viability < 0.9). The settings on record: 10 µM.
Assay [2] concerns S. aureus RN4220. The experiment in a line: growth inhibition call (relative growth <= 0.2). The settings on record: 50 µM.

With `CC(C)NC(=O)N(C)C[C@H]1OCCCC[C@H](C)Oc2ccc(NC(=O)Nc3ccc(C(F)(F)F)cc3)cc2C(=O)N([C@H](C)CO)C[C@@H]1C`, the cytotoxicity call in assay [1] is “inactive”. Also, the growth inhibition call in assay [2] is “inactive”.
For the compound `COCC(=O)N1C[C@H](C)[C@H](OC)CN(C)C(=O)c2ccc(NC(=O)Nc3ccccc3)cc2OC[C@H]1C`, the cytotoxicity call in assay [1] is “inactive”. For the same compound, in assay [2], the growth inhibition call is “inactive”.
For the compound `C[C@H](O)C#Cc1ccc2c(c1)O[C@H](CN(C)C)[C@@H](C)CN([C@@H](C)CO)S2(=O)=O`, the cytotoxicity call in assay [1] was “inactive”. Moreover, the growth inhibition call in assay [2] was “inactive”.
On to `C[C@H]1CN([C@@H](C)CO)C(=O)c2cc(C#CC3(O)CCCC3)cnc2O[C@@H]1CN(C)S(=O)(=O)c1ccccc1`, for which the cytotoxicity call in assay [1] is “inactive”. In assay [2], the growth inhibition call was “inactive”.
`C[C@H](CO)N1C[C@H](C)[C@H](CN(C)C(=O)CN(C)C)Oc2cc(C#Cc3ccccc3)ccc2S1(=O)=O`: in assay [1], the cytotoxicity call was “inactive”. The growth inhibition call in assay [2] is “active”.
Turning to `CC(C)NC(=O)N(C)C[C@@H]1Oc2c(NS(=O)(=O)c3ccc(F)cc3)cccc2C(=O)N([C@H](C)CO)C[C@@H]1C`, the cytotoxicity call in assay [1] was “inactive”. In addition, the growth inhibition call in assay [2] was “inactive”.
As for `C[C@@H]1CN([C@@H](C)CO)C(=O)c2cc(C#CC3(O)CCCC3)cnc2O[C@H]1CN(C)C(=O)CN(C)C`, in assay [1], the cytotoxicity call is “inactive”. The growth inhibition call in assay [2] is “inactive”.
For the compound `C[C@@H]1CCCCO[C@H](CN(C)C(=O)C2CCCCC2)[C@H](C)CN([C@@H](C)CO)C(=O)c2cc(NC(=O)Cc3ccccc3)ccc2O1`, in assay [1], the cytotoxicity call was “inactive”. Besides, the growth inhibition call in assay [2] is “inactive”.
On to `C[C@H](CO)N1C[C@H](C)[C@@H](CN(C)CC2CCCCC2)OCc2ccccc2-c2c(n(C)c3ccccc23)C1=O`, for which, in assay [1], the cytotoxicity call was “inactive”. Besides, the growth inhibition call in assay [2] was “inactive”.
Regarding `Cc1noc(C)c1NC(=O)N(C)C[C@H]1OCCCC[C@H](C)Oc2ccc(NS(=O)(=O)c3ccccc3)cc2C(=O)N([C@@H](C)CO)C[C@@H]1C`, the cytotoxicity call in assay [1] was “inactive”. The growth inhibition call in assay [2] is “inactive”.
As to `Cc1noc(C)c1NC(=O)N(C)C[C@@H]1Oc2c(NS(=O)(=O)c3cn(C)cn3)cccc2C(=O)N([C@H](C)CO)C[C@H]1C`, in assay [1], the cytotoxicity call is “inactive”. Besides, in assay [2], the growth inhibition call is “inactive”.
`COCCOC(=O)N1C(=O)[C@@]2(c3cc(C#CCC(C(=O)OC)C(=O)OC)ccc31)[C@H](c1ccc(OCCO)cc1)N1[C@H](c3ccccc3)[C@H](c3ccccc3)OC(=O)[C@H]1[C@@H]2C(=O)N1CCCCCCC1`: the cytotoxicity call in assay [1] is “inactive”. For the same compound, the growth inhibition call in assay [2] was “inactive”.
As to `C[C@@H]1CCCCO[C@H](CN(C)C(=O)C2CCCCC2)[C@@H](C)CN([C@H](C)CO)C(=O)c2cc(NC(=O)c3ccccc3)ccc2O1`, the cytotoxicity call in assay [1] is “inactive”. The growth inhibition call in assay [2] was “inactive”.
Consider `C[C@H](CO)N1C[C@H](C)[C@H](CN(C)CC2CCCCC2)OCCCC[C@H](C)Oc2ccc(NC(=O)NC3CCCCC3)cc2C1=O`, for which the cytotoxicity call in assay [1] was “inactive”. For the same compound, the growth inhibition call in assay [2] was “inactive”.
Take `N[C@@H](Cn1ccnc1)c1ccccc1`: in assay [1], the cytotoxicity call was “inactive”. Also, the growth inhibition call in assay [2] was “inactive”.
As for `C[C@H](CO)N1C[C@H](C)[C@@H](CN(C)Cc2ccc3c(c2)OCO3)Oc2ccc(NS(=O)(=O)c3ccccc3)cc2CC1=O`, the cytotoxicity call in assay [1] is “inactive”. Moreover, the growth inhibition call in assay [2] is “inactive”.
With `O=C(C[C@H]1CC[C@@H]2[C@H](COC[C@H](O)CN2C(=O)c2ccccc2F)O1)N1CCN(c2ccccc2)CC1`, the cytotoxicity call in assay [1] is “inactive”. The growth inhibition call in assay [2] was “inactive”.
Turning to `COc1ccc(NC(=O)N(C)C[C@H]2OCCCC[C@H](C)Oc3ccc(NS(=O)(=O)c4ccc(OC)cc4)cc3C(=O)N([C@@H](C)CO)C[C@H]2C)cc1`, the cytotoxicity call in assay [1] was “inactive”. For the same compound, the growth inhibition call in assay [2] was “inactive”.
As for `CO[C@@H]1CN(C)C(=O)c2cc(NC(=O)C3CC3)ccc2OC[C@@H](C)N(C(=O)Cc2ccccn2)C[C@H]1C`, in assay [1], the cytotoxicity call is “inactive”. In assay [2], the growth inhibition call is “inactive”.
As for `COCC#Cc1ccc2c(c1)O[C@H](CN(C)C(=O)Nc1ccccc1F)[C@H](C)CN([C@H](C)CO)S2(=O)=O`, the cytotoxicity call in assay [1] is “inactive”. Also, in assay [2], the growth inhibition call is “inactive”.
Regarding `CC(C)C(O)=C1C(=O)OC(c2ccoc2)C2(C)C(O)C(O)C34OC5(C)OC3(C12)C(O)C1(O)C(O)C2(C)CC1(O5)C4(C)C2CC(=O)O` (configuration not stated), in assay [1], the cytotoxicity call is “inactive”. Also, in assay [2], the growth inhibition call is “inactive”.
For the compound `O=C(O)CCCNc1n[nH]c(=O)[nH]c1=O`, the cytotoxicity call in assay [1] was “inactive”. The growth inhibition call in assay [2] is “inactive”.
Consider `Cc1noc(C)c1S(=O)(=O)Nc1ccc2c(c1)C(=O)N([C@H](C)CO)C[C@@H](C)[C@@H](CN(C)Cc1ccncc1)O2`, for which, in assay [1], the cytotoxicity call was “inactive”. The growth inhibition call in assay [2] was “inactive”.
In the case of `C[C@H]1CN([C@@H](C)CO)C(=O)c2cccc(NC(=O)CCCCCC(=O)Nc3ccccc3N)c2O[C@@H]1CN(C)S(=O)(=O)c1cn(C)cn1`, the cytotoxicity call in assay [1] was “inactive”. For the same compound, in assay [2], the growth inhibition call was “inactive”.
In the case of `CO[C@@H]1CN(C)C(=O)c2cc(NS(=O)(=O)c3cn(C)cn3)ccc2OC[C@H](C)N(CC2CC2)C[C@@H]1C`, the cytotoxicity call in assay [1] is “inactive”. The growth inhibition call in assay [2] was “inactive”.
Consider `CC(C)NC(=O)N(C)C[C@H]1Oc2c(NS(=O)(=O)c3ccc(F)cc3)cccc2C(=O)N([C@H](C)CO)C[C@H]1C`, for which the cytotoxicity call in assay [1] is “inactive”. In addition, the growth inhibition call in assay [2] is “inactive”.
